In the RNAGym collection of RNA variant scans (doi:10.7554/elife.90254) one finds self-cleavage data, which are given here for 19 variants.

Read counts are not given, so values of variants with three or more changes are uncertain.

B1: LINE1-full (parent)
chain: UACGUAGGUGGUUUUCCCCUGAUAGUGCUAAGGGGGCCUGGAAGUUUGGACUGGGCAGAGCUCAACACAGCGUGGCAAAGUGGCUGUGGCUAGACUGCCUCUCUGGAUUCCUCGUCACUCAGCAGGGCAUCUCUGAGAGAAAUGCC

This data set covers variants of B1. The data set can be described thus: self-cleavage, relative activity (ratio to wild type); higher = more cleavage; in vitro, sequencing; the parent is a self-cleaving ribozyme.
Consider CACGUAGGUGGUUUUCCCCUGAUAGUGCUAAGGGGGCCUGGAAGUUUGGACUGGGCAGAGCUCAACACAGCAUGGCAAAGUGGCUGUGGCUAGACUGCCUCUCUGGAUUCCUCGUCGCUCAGCAGGGCAUCUCUGAGAGAAAUGCC, for which the self-cleavage was 0.51. For the variant CACGUAGGUGGUUUUCCCCUGAUAGUGCUAAGGGGGCCUGGAAGUUUAGACUGGGCAGAGCUCAACACAGCGUGGCAAAGUGGCUGUGGCUAGACUGCCUCUCUGGAUUCCUCGUCACUCAGCAGGGCGUCUCUGAGAGAAAUGCC, the self-cleavage came to 0.31.

As to CACGUAGGUGGUUUUCCCCUGAUAGUGCUAAGGGGGCCUGGAAGUUUGGACUGGGCAGAGCUCAACACAGCGUGGCAAAGUGGCUAUGGCUAGACUGCCUCUCUGGAUUUCUCGUCACCCAGCAGGGCAUCUCUGAGAGAAAAGCC, the self-cleavage was 0.1. With CACGUAGGUGGUCUUCUCCUGAUAGUGCUAAGGGGGCCUGGAAGUUUGGACUGGGCAGAGCUCAACACAGCGUGGAAAAGUGGCUGUGGCUAGACUGCCUCUCUGAAUUCCUCGUCACUCAGCAGGGCAUCUCUGAGAGAAAUGCC, the self-cleavage came to 0.

Take CACGUAGGCGGUUUUCCCCUGAAAGUGCUAAGGGGGCCUGGAAGUUUGGACUGGGCAGAGCCCAACACAGCGUGACAAAGUGGCUGUGGCUAGACUGCCUCUCUGGAUUCCUCGUCACUCAGCAGGGCAUCUCUGAGAGAAAUGCC: the self-cleavage turned out to be 0.08. Consider CACGUAGGCGGUUUUCCCCUGAUAGUGCUAAGGGGGCCUGGAAGUUUGGACUGGGCAGGGCUCAACACAGCGUGGCAAAGUGGCUGUGGCUAGACUGCCUCUCUGGAUUCCUCGUCACUCAGCAGGGCAUCUCUGAGAGAAAUGCC, for which the self-cleavage is 0.

Turning to CACGUAGGCGGUUUUCCCCUGAUAGUGCUAAGGGGGCCUGGAAGUUUGGACUGGGCAGAGCUCAACACAGCGUGGCAAAGUGGCUGUGGCUAGACUGCCUCUCUGGAUUCCUCGUCACUCAGCAGGGCAUCUCUGGGGGAAAUGCC, the self-cleavage is 1.53.

For CACGUAGGUGGAUCUCCCCUGAUAGUGCUAAGGGGGCCUGGAAGUUUGGACUGGGCAGAGCUCAACACAGCGUGGCAAAGUGGCUGUGGCUAGACUGCCUCUCUGGAUUCCUCGUCACUCAGCAGGGCAUCUCUGAGAGAAAUGCC, the self-cleavage worked out at 0.86. As for CACGUAGGUGGUUUUCCCCUGAUAGUGCUAAGGGAGCCUGGAAGUUUGGACUGGACAGAGCUCAACACAGCGUGGCAAAGUGGCUGUGGCUAGACUGCCUCUCUGGAUUCCUCGUCACUCAGCAGGGCAUCUCUGAGAGAAAUGCC, the self-cleavage worked out at 0.13.

Take CACGUAGGUGGUUUUCCCCUGAUAGUGCUAAGGGGGCCUAGAAGUUUGGACAGGGCAGAGCUCAACACAGCGUGGCAAAGUGGCUGUGGCUAGACUGCCUCUCUGGAUUCCUCGUCACUCAGCAGGGCAUCUCUGAGAGAAAUGCC: the self-cleavage came out at 0.83. Consider CACGAAGGUGGUUUUCCCCUGAUAGUGCUAAGGGGGCCUGGAAGUUUGGACUGGGCAGAGCUCAACACAGCGUGGCAAAGUGGCUGUGGCUAGACUGCCUCUCUUGAUCCCUCGUCACUCAGCAGGGCAUCUCUGAGAGAAAUGCC, for which the self-cleavage is 0.78. Turning to CACGUAGGUGGGUUCCCCCUGAUAGUGCUAAGGGGGCCUGGAAGUUUGGACUGGGCAGAGCUCAACACAGCGUGGCAAAGUGGCUGUGGCUAGACUGCCUCUCUGGAUUCCUCGUCACUCAGCAGGGCAUCUCUGUGAGAAAUGCC, the self-cleavage is 1.49.

Consider CACGCAGUUGGUUUUCCCCUGAUAGUGCUAAGGGGGCCUGGAAGUUUGGACUGGGCAGAGCUCAACACAGCGUGGCAAAGUGGCUGUGGCUAGACUGCCUCUCUGGAUCUCUCGUCACUCAGCAGGGCAUCUCUGAGAGAAACGCC, for which the self-cleavage turned out to be 1.05.

For CACGUAGGUGGUCUUCCCCUGACAGUGCUAAGGGGGCCUGGAAGUUUGGACUGGGCAGAGCUCAACACAGCGUGGCAAAGUGGCUGUGGCUAGACUGCCUCUCUGGAUUCCUCGUCACUCAGCAGGGCAUCUCUGAGAGAGAUGCC, the self-cleavage is 0.73. As for CACGUAGGUGGUCUUCCCCUGAUAGUGCUAAGGGGGCCUGGAAGUUUGGACUGGGCAGAGCCCAACACAGCGUGGCAAAGUGGCUGUGGCUAGACUGCCUCUCUGGAUUCCUCGUCACUCAGCAGGGCAUCUCUGAGAGGAAUGCC, the self-cleavage was 0. On to CACGUAGGUGGUCUUCCCCUGAUAGUGCUAAGUGGGCCUGGAAGUUUGGACUGGGCAGAGCUCAACACAGCGUGGCAAAGUGGCUGUGGCUAGACUGCCUCUCUGGCUUCCUCGUCACUCAGCAGGGCAUCUCUGAGAGAAAUGCC, for which the self-cleavage is 1.25.

CACGUAGGUGGGUUUCCCCUGAUAGUGCUAAGGGGGCCUGGUAGUUUGGACUGGGCAGAGCUCAACACAGCGUGGCAAAGUGGCUGUGGCUAGACCGCCUCUCUGGAUUCCUCGUCACUCAGCAGGGCAUCUCUGAGAGAGAUGCC: the self-cleavage was found to be 0.1. For the variant CACGUAGGUGGUUUUCCCCUGAUAGUGCUAAGGGGGCCUGGAAGUUUGGACUGGGCAGAGCUCAACACAGCGUGGCAAAAUGGCUGUGGCUAGACUGCCUCUCAGGAUUCCUCGUCACUCAGCAGGGCAUCUCUGAGAGAAAUGCC, the self-cleavage worked out at 0.93. Take CACGUAGGCGGUUUUCCCCUGAUAGUGCUAAGGGGGCCUGGAAGUUUGGACUGGGCAGAGCUCAACACAGCGUGGCAAAGUGGCUGUGGCUAGACUGCCUCUCUGAAUUCCUCGUCACUCAGCAGGGCAUCUCUGAGAGAAAUGCC: the self-cleavage came out at 2.04.
